Assay results as given in ChEMBL document CHEMBL4513135, “CO-ADD screening of IQOG CSIS (Spain) compounds”.
Where “and” joins values, the source holds several entries; their conditions need not be identical. Equal entries are not always repeated. This is one part of the list. Results with a measured potency or affinity are listed apart.

System: Pseudomonas aeruginosa
Conditions: Concentration 32 ug.mL-1, ASSAY_TEST Inhibition of Bacterial Growth, detection method Absorption (OD600), MEDIA CAMHB, plate type 384well, NBS, CORNING #3640, time 18 hr

For `Cl.Nc1c2c(nc3c1C(c1ccccc1)c1ccc4ccccc4c1O3)CCCC2` (stereo unspecified), the Inhibition was 43.11%.
In the case of `O=C(NNCCc1ccccc1)c1cc2ccccc2[nH]1`, the Inhibition is reported as 17.16%.
`C#CCN(C)Cc1cc2cc(OCCCC3CCN(C(=O)OC(C)(C)C)CC3)ccc2n1C` was tested, and the Inhibition was -3.3%.
For `COc1ccc(C2c3c(nc4c(c3N)CCCC4)Oc3ccc4ccccc4c32)cc1OC` (stereo unspecified), the Inhibition was 13.3%.
Work on `CC(=O)Oc1ccc(C=C2N=C(c3ccccc3)OC2=O)c(OC(C)=O)c1` yielded an Inhibition of -2.97%.
In the case of `O=C(Cc1cccc2ccccc12)N/N=C/c1c[nH]c2ccccc12`, the Inhibition is reported as 10.97%.
With `O=C1OC(c2ccc([N+](=O)[O-])cc2)=NC1=Cc1ccccc1` the Inhibition was 13.7%.
`CCOC(=O)C1=C(C)OC(N)=C(C#N)C1c1ccco1` (stereo unspecified) gave an Inhibition of 1.21%.
Compound `C/C(Cc1ccccc1)=N/NC(=O)c1c[nH]c2ccc(O)cc12` has an Inhibition of 34.85%.
In the case of `COc1cc(C=NNC(=O)Cc2c[nH]c3ccccc23)ccc1O`, the Inhibition is reported as 11.8%.
`CCOC(=O)c1c[nH]c2ccc(OC)cc12` was tested, and the Inhibition was 8.77%.
Work on `COc1ccc2cc(C3C4=C(CC(C)(C)CC4=O)Oc4nc5c(c(N)c43)CCC5)c(Cl)nc2c1` (stereo unspecified) yielded an Inhibition of 20.96%.
`Cc1nn(-c2ccccc2)c2ncnc(NCc3ccccc3)c12` showed an Inhibition of 36.14%.
`COC1=C(C#N)C(c2ccccc2)C(C=O)=C(Cl)N1` (stereo unspecified) was tested, and the Inhibition was 7.7%.
For `CN(C)c1ccc(C(=NNC(=O)c2cc3ccccc3[nH]2)c2ccc(N(C)C)cc2)cc1`, the Inhibition was 19.91%.
Compound `CC(=O)Nc1n[nH]c2nc(N)c(C#N)c(-c3ccccc3)c12` has an Inhibition of 16.91%.
For `COC(=O)C(=Cc1ccccc1)NC(=O)c1ccccc1`, the Inhibition was 32.35%.
In the case of `Cn1ccnc1C1c2c(nc3c(c2N)CCC3)Oc2ccc3ccccc3c21` (stereo unspecified), the Inhibition is reported as 37.14%.
In the case of `CC1CC(=O)Nc2c1c(Cl)nc1nc3c(c(N)c21)CCCC3` (stereo unspecified), the Inhibition is reported as 31.73%.
`O=C(N/N=C/c1cccc(Cl)c1)c1cc2ccccc2[nH]1` was tested, and the Inhibition was -3.63%.
`CCOC(=O)/C(C#N)=C\c1ccc(Cl)cc1` showed an Inhibition of 10.52%.
Compound `CN(N=O)C(=O)NC1(C(=O)O)CC1c1ccccc1` (stereo unspecified) has an Inhibition of 47.22%.
`CN(C)c1nc(N)c(C#N)c(-c2ccccc2)c1C#N` showed an Inhibition of 8.2%.
With `N#Cc1c(N)nc(NC2CCN(Cc3ccccc3)CC2)c(C#N)c1-c1ccccc1` the Inhibition was 13.07%.
`C#CCNc1nc(NCCC2CCN(Cc3ccccc3)CC2)c(C#N)cc1C#N` was tested, and the Inhibition was 1.56%.
Work on `CN1C/C(=C\Cl)n2c1c(C#N)c(-c1ccccc1)c(C#N)c2=O` yielded an Inhibition of -1.85%.
For `N#Cc1c(-c2cccc([N+](=O)[O-])c2)c2ccc3ccccc3c2oc1=O`, the Inhibition (32 ug/mL) was 3.83% and -14.72% and 0.07%.
In the case of `CC#CCN(Cc1ccccc1)c1nc(N)c(C#N)c(-c2ccccc2)c1C#N`, the Inhibition is reported as 11.74%.
`COc1ccccc1C1c2ccc3ccccc3c2Oc2nc3c(c(N)c21)CCCC3` (stereo unspecified) gave an Inhibition of 32.54%.
Work on `COC(=O)C1CCN(Cc2ccccc2)CC1` yielded an Inhibition of 20.53%.
`CCCCNNC(=O)c1cc2ccccc2[nH]1` showed an Inhibition of 4.89%.
`NNC(=O)c1cc2ccccc2n1Cc1ccccc1` gave an Inhibition of -0.35%.
Work on `COc1cccc(C2c3c(nc4c(c3N)CCCC4)Oc3ccc4ccccc4c32)c1` (stereo unspecified) yielded an Inhibition of 38.82%.
`Cl.N#Cc1c(Cl)nc(N)nc1NCCO` was tested, and the Inhibition was 8.66%.
For `CS(=O)(=O)O[C@H]1CC[C@H](OS(C)(=O)=O)CC1`, the Inhibition was 24.01%.
Work on `N#CC1=C(Cl)Oc2c(ccc3ccccc23)C1c1cccc([N+](=O)[O-])c1` (stereo unspecified) yielded an Inhibition of -4.99%.
For `CSC1=NC(=Cc2cn(C)c3ccccc23)C(=O)N1C`, the Inhibition was 13.66%.
`N#CC1=C(N)NC(=O)CC1c1ccccc1` (stereo unspecified) showed an Inhibition of 19.7%.
`C#CCN(C)Cc1cc2cc(OCCCC3CCN(Cc4ccc(OC)c5ncccc45)CC3)ccc2n1C` showed an Inhibition of -0.76%.
Compound `CCOC(=O)C1=C(C)OC(N)=C(C#N)C1c1ccc(F)cc1` (stereo unspecified) has an Inhibition of 29.82%.
`Cl.ClCCCCCN1CCCCC1` gave an Inhibition of 14.93%.
With `N#CC1(Br)C(=N)Oc2ccc3ccccc3c2C1c1ccccc1` (stereo unspecified) the Inhibition (32 ug/mL) was 1.54% and 11.09%.
Work on `Cl.ClCCCCN1CCCCC1` yielded an Inhibition of 1.16%.
`Cc1ccc(C2c3c(nc4c(c3N)CCCC4)Oc3ccc4ccccc4c32)cc1` (stereo unspecified) showed an Inhibition of 18.1%.
`Cc1nc(NCc2ccccc2)c2cnn(-c3ccccc3)c2n1` gave an Inhibition of 26.46%.
Work on `O=C1OC(c2ccccc2)=NC1=Cc1ccccc1Cl` yielded an Inhibition of 40.75%.
Work on `C=C1CN(C)c2c(C#N)c(-c3ccccc3)c(C#N)c(=N)n21` yielded an Inhibition of -0.89%.
With `C=C1CN(C)c2ncc(C#N)c(=N)n21` the Inhibition was 6.99%.
In the case of `Nc1c2c(nc3ccc([N+](=O)[O-])cc13)CCCC2`, the Inhibition is reported as 14.86%.
`Cn1c(CNNC(=O)c2ccco2)cc2ccccc21` was tested, and the Inhibition was 2.06%.
For `CC#CCN(Cc1ccccc1)c1nc(N)c(C#N)cc1C#N`, the Inhibition was -0.41%.
Work on `Cc1ccc(CNNC(=O)c2c[nH]c3ccccc23)cc1` yielded an Inhibition of 16.69%.
`Cc1nn(-c2ccccc2)c2nc(C)n3nc(-c4ccccc4)nc3c12` gave an Inhibition of 25.08%.
`CCOC(=O)c1cc2c(N)c3c(nc2nc1C)CCCC3` gave an Inhibition of 17.4%.
Compound `O=C(NNC(Cc1ccccc1)Cc1ccccc1)c1cc2ccccc2[nH]1` has an Inhibition of 19.79%.
With `Nc1c2c(nc3c1C(c1ccc(O)cc1)c1c(ccc4ccccc14)O3)CCCC2` (stereo unspecified) the Inhibition was 34.08%.
For `CCOC(=O)c1c(C)nc(/N=N/c2nc(C)c(C(=O)OCC)c(-c3ccccc3)c2C#N)c(C#N)c1-c1ccccc1`, the Inhibition was 18.37%.
Compound `Br.C#CCNCC` has an Inhibition of -1.53%.
Compound `Cc1ccc(C2C(C#N)=C(N)Oc3c2ccc2ccccc32)cc1` (stereo unspecified) has an Inhibition of 20.41%.
`CCOC(=O)C1=C(C)Nc2nc3c(c(N)c2C1c1cccc(OC)c1)CCCC3` (stereo unspecified) showed an Inhibition of -3.28%.
`OCc1cc2ccccc2[nH]1` gave an Inhibition of 21.95%.
With `Cn1c(CO)cc2cc(OCCCC3CCN(Cc4ccccc4)CC3)ccc21` the Inhibition was 9.54%.
Compound `C#CCN(C)c1nc(OC)c(C#N)c(-c2ccccc2)c1C#N` has an Inhibition of 2.05%.
In the case of `COc1ccc(-c2cc(-c3cc4ccc(OC)cc4nc3Cl)cc(=O)[nH]2)cc1`, the Inhibition is reported as -1.54%.
For `N#CC1=C(Cl)Oc2c(ccc3ccccc23)C1c1ccccc1[N+](=O)[O-]` (stereo unspecified), the Inhibition was 2.78%.
Compound `C#CCN(C)c1nc(NCC2CCN(Cc3ccccc3)CC2)c(C#N)c(-c2ccccc2)c1C#N.Cl` has an Inhibition of 34.2%.
In the case of `CCOC(=O)C1=C(C)OC(N)=C(C#N)C1c1ccc(OC)cc1` (stereo unspecified), the Inhibition is reported as 34.42%.
Compound `CCC(CC)NNC(=O)c1cc2ccccc2n1C` has an Inhibition of 18.54%.
`N#CCC(=C(C#N)C#N)c1ccccc1` was tested, and the Inhibition was 7.89%.
For `CC(=O)CCc1c[nH]c2ccccc12`, the Inhibition was 43.48%.
Work on `Cn1c(C(=O)N2CCOCC2)cc2cc(OCCCC3CCN(Cc4ccccc4)CC3)ccc21` yielded an Inhibition of 8.58%.
Compound `O=C1SC(SCc2ccccc2)=NC1=Cc1ccc2c(c1)OCO2` has an Inhibition of -7.63%.
For `N#Cc1cc(C#N)c(NCCO)nc1N`, the Inhibition was 17.26%.
For `C=C1CN(C)c2c(C#N)cc(C#N)c(=N)n21`, the Inhibition was 1.19%.
Compound `COc1[nH]c(=O)ccc1C#N` has an Inhibition of 7.53%.
In the case of `C#CCN(C)Cc1cc2cc(OCCC3CCN(Cc4ccccc4)CC3)ccc2n1C.Cl`, the Inhibition is reported as 5.95%.
`O=C(O)/C(=C\c1ccccc1)NC(=O)c1ccccc1` gave an Inhibition of 40.01%.
In the case of `O=Cc1c(-c2ccc(Br)cc2)nc2ccccn12`, the Inhibition is reported as 37.6%.
`CCOC(=O)c1cc2cc(OC)ccc2n1C` gave an Inhibition of 2.43%.
`Cc1ccc2nc(Cl)c(/C=N/C(C)(C)C)cc2c1` was tested, and the Inhibition was 4.45%.
`Cc1ccc2[nH]c(=O)c(C=O)cc2c1` was tested, and the Inhibition was 7.63%.
For `O=C(N/N=C/c1c[nH]c2ccccc12)c1ccco1`, the Inhibition was 20.62%.
Work on `CC(=O)Oc1cccc(C=C2N=C(c3ccccc3)OC2=O)c1` yielded an Inhibition of 4.25%.
`Clc1ccc(-c2cn3ccccc3n2)cc1` gave an Inhibition of 19.16%.
`COc1ccc(-c2cc(-c3cc4ccccc4nc3Cl)cc(=O)[nH]2)cc1` gave an Inhibition of 8.12%.
With `Cc1ccc(C2c3ccc4ccccc4c3Oc3nc4c(c(N)c32)CCCC4)cc1.Cl` (stereo unspecified) the Inhibition was 32.3%.
`O=C(NNCc1ccco1)c1cc2ccccc2[nH]1` showed an Inhibition of 13.15%.
With `COc1ccc2c(c1)cc(CO)n2C` the Inhibition was -3.06%.
`N#Cc1cc(C#N)c(N2CCCC2)nc1N` gave an Inhibition of 9.99%.
Work on `NOC(=O)C1CCN(Cc2ccccc2)CC1` yielded an Inhibition of 28.79%.
`COc1cccc(C2c3ccc4ccccc4c3OC(=NBr)C2(Br)C#N)c1` (stereo unspecified) gave an Inhibition of -1.91%.
With `C/C(Cc1ccccc1)=N\NC(=O)c1c[nH]c2ccccc12` the Inhibition was 12.42%.
Work on `CC1(C)OC(=O)C(=Cc2ccc([N+](=O)[O-])cc2)C(=O)O1` yielded an Inhibition of 40.05%.
In the case of `CNCc1cc2ccccc2n1C.Cl`, the Inhibition is reported as 42.1%.
In the case of `N#CC1=C(Cl)Oc2ccc3ccccc3c2C1c1ccccc1` (stereo unspecified), the Inhibition is reported as 18.65%.
`COc1ccc(C2c3c(ccc4ccccc34)OC(=NBr)C2(Br)C#N)cc1` (stereo unspecified) showed an Inhibition of -0.59%.
`COc1ccc2c(c1)cc(CN)n2C` showed an Inhibition of 26.76%.
`C#CCNc1nc(N)c(C#N)c(-c2ccccc2)c1C#N` was tested, and the Inhibition was 14.04%.
With `CCOC(=O)c1c(C)[nH]c(=O)c(C#N)c1-c1ccccc1` the Inhibition was 11.5%.
With `CC(C)CC(C)NNC(=O)c1cc2ccccc2[nH]1` (stereo unspecified) the Inhibition was -5.28%.
`CC(C)C(=O)N/N=C/c1c[nH]c2ccccc12` was tested, and the Inhibition was 43.02%.
In the case of `Cc1ccc(C2c3ccc4ccccc4c3Oc3nc4c(c(N)c32)CCCC4)cc1` (stereo unspecified), the Inhibition is reported as -0.1%.
`N#Cc1cc(C#N)c(NCCC2CCN(Cc3ccccc3)CC2)nc1N` showed an Inhibition of 8.64%.
Work on `COc1cc(C2C(C#N)=C(N)Oc3c2ccc2ccccc32)ccc1O` (stereo unspecified) yielded an Inhibition of -11.89%.
With `CCOc1nc2nc(CCc3ccccc3)ccc2c(-c2ccccc2)c1C#N` the Inhibition was 11.27%.
Compound `CSC1=NC(=Cc2cn(C(c3ccccc3)(c3ccccc3)c3ccccc3)c3ccccc23)C(=O)N1C` has an Inhibition of -21.17%.
